# The other results are listed elsewhere or left out.
# B1: SAOUHSC 00176 (Staphylococcus aureus) (protein)
# chain: MSKILKCITLAVVMLLIVTACGPNRSKEDIDKALNKDNSKDKPNQLTMWVDGDKQMAFYKKITDQYTKKTGIKVKLVNIGQNDQLENISLDAPAGKGPDIFFLAHDNTGSAYLQGLAAEIKLSKDELKGFNKQALKAMNYDNKQLALPAIVETTALFYNKKLVKNAPQTLEEVEANAAKLTDSKKKQYGMLFDAKNFYFNYPFLFGNDDYIFKKNGSEYDIHQLGLNSKHVVKNAERLQKWYDKGYLPKAATHDVMIGLFKEGKVGQFVTGPWNINEYQETFGKDLGVTTLPTDGGKPMKPFLGVRGWYLSEYSKHKYWAKDLMLYITSKDTLQKYTDEMSEITGRVDVKSSNPNLKVFEKQARHAEPMPNIPEMRQVWEPMGNASIFISNGKNPKQALDEATNDITQNIKILHPSQNDKKGD
# Legend:
# Test in all cases: glycan array binding signal (z-score within array); higher = stronger binding
# Conditions in all cases: glycan notation: IUPAC condensed, linker removed
# [1] = biological target: GalNAc3S(b1-4)[Fuc(a1-3)]GlcNAc
# In short: (§1)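 Glycan array binding is given as a within-array Z-score, which can be read as non-binding when negative. The arrays, 3228 of them, came from the Consortium for Functional Glycomics database and were retained only where the protein sequence was available. Z-scores were averaged across arrays of the same protein sequence at different concentrations or buffers and across linkers.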
# GalNAc4S6S(b1-4)GlcNAc = biological target: GalNAc4S6S(b1-4)GlcNAc
# In short: as §1
# GalNAc6S(b1-4)GlcNAc = biological target: GalNAc6S(b1-4)GlcNAc
# In short: as §1
# Glc(a1-4)Glc = biological target: Glc(a1-4)Glc
# In short: as §1
# [2] = biological target: Glc(a1-4)Glc(a1-4)Glc(a1-4)Glc
# In short: as §1
# Glc(a1-6)Glc(a1-6)Glc = biological target: Glc(a1-6)Glc(a1-6)Glc
# In short: as §1
# [3] = biological target: Glc(a1-6)Glc(a1-6)Glc(a1-6)Glc
# In short: as §1
# Glc(b1-4)Glc = biological target: Glc(b1-4)Glc
# In short: as §1
# Glc(b1-6)Glc = biological target: Glc(b1-6)Glc
# In short: as §1
# GlcA(b1-3)Gal = biological target: GlcA(b1-3)Gal
# In short: as §1
# GlcA(b1-3)GlcNAc = biological target: GlcA(b1-3)GlcNAc
# In short: as §1
# GlcA(b1-6)Gal = biological target: GlcA(b1-6)Gal
# In short: as §1
# [4] = biological target: GlcA3S(b1-3)Gal(b1-4)GlcNAc(b1-2)Man
# In short: as §1
# [5] = biological target: GlcA3S(b1-3)Gal(b1-4)GlcNAc(b1-3)Gal(b1-4)Glc
# In short: as §1
# [6] = biological target: GlcNAc(a1-3)Gal(b1-4)GlcNAc
# In short: as §1
# [7] = biological target: GlcNAc(a1-4)Gal(b1-3)GlcNAc
# In short: as §1
# [8] = biological target: GlcNAc(a1-4)Gal(b1-4)GalNAc
# In short: as §1
# [9] = biological target: GlcNAc(a1-4)Gal(b1-4)GlcNAc
# In short: as §1
# [10] = biological target: GlcNAc(a1-4)Gal(b1-4)GlcNAc(b1-3)Gal(b1-4)Glc
# In short: as §1
# [11] = biological target: GlcNAc(a1-4)Gal(b1-4)GlcNAc(b1-3)Gal(b1-4)GlcNAc
# In short: as §1
# [12] = biological target: GlcNAc(a1-4)Gal(b1-4)GlcNAc(b1-3)Gal(b1-4)GlcNAc(b1-3)Gal(b1-4)GlcNAc
# In short: as §1
# [13] = biological target: GlcNAc(a1-4)Gal(b1-4)GlcNAc(b1-3)Gal(b1-4)[Fuc(a1-3)]GlcNAc(b1-3)Gal(b1-4)[Fuc(a1-3)]GlcNAc
# In short: as §1
# [14] = biological target: GlcNAc(a1-6)Gal(b1-4)GlcNAc
# In short: as §1
# [15] = biological target: GlcNAc(b1-2)Gal(b1-3)GalNAc
# In short: as §1
# [16] = biological target: GlcNAc(b1-2)Man(a1-3)[GlcNAc(b1-2)Man(a1-6)]Man(b1-4)GlcNAc(b1-4)GlcNAc
# In short: as §1
# [17] = biological target: GlcNAc(b1-2)Man(a1-3)[GlcNAc(b1-2)Man(a1-6)]Man(b1-4)GlcNAc(b1-4)[Fuc(a1-6)]GlcNAc
# In short: as §1
# [18] = biological target: GlcNAc(b1-2)Man(a1-3)[GlcNAc(b1-4)][GlcNAc(b1-2)Man(a1-6)]Man(b1-4)GlcNAc(b1-4)GlcNAc
# In short: as §1
# [19] = biological target: GlcNAc(b1-2)Man(a1-3)[GlcNAc(b1-4)][GlcNAc(b1-2)Man(a1-6)]Man(b1-4)GlcNAc(b1-4)[Fuc(a1-6)]GlcNAc
# In short: as §1
# [20] = biological target: GlcNAc(b1-2)[GlcNAc(b1-4)]Man(a1-3)[GlcNAc(b1-2)Man(a1-6)]Man(b1-4)GlcNAc(b1-4)GlcNAc
# In short: as §1
# [21] = biological target: GlcNAc(b1-2)[GlcNAc(b1-4)]Man(a1-3)[GlcNAc(b1-4)][GlcNAc(b1-2)Man(a1-6)]Man(b1-4)GlcNAc(b1-4)GlcNAc
# In short: as §1
# [22] = biological target: GlcNAc(b1-2)[GlcNAc(b1-4)]Man(a1-3)[GlcNAc(b1-4)][GlcNAc(b1-2)[GlcNAc(b1-6)]Man(a1-6)]Man(b1-4)GlcNAc(b1-4)GlcNAc
# In short: as §1
# [23] = biological target: GlcNAc(b1-2)[GlcNAc(b1-4)]Man(a1-3)[GlcNAc(b1-4)][GlcNAc(b1-2)[GlcNAc(b1-6)]Man(a1-6)]Man(b1-4)GlcNAc(b1-4)[Fuc(a1-6)]GlcNAc
# In short: as §1
# [24] = biological target: GlcNAc(b1-2)[GlcNAc(b1-6)]Man(a1-6)[GlcNAc(b1-2)Man(a1-3)]Man(b1-4)GlcNAc(b1-4)GlcNAc
# In short: as §1
# [25] = biological target: GlcNAc(b1-2)[GlcNAc(b1-6)]Man(a1-6)[GlcNAc(b1-2)Man(a1-3)]Man(b1-4)GlcNAc(b1-4)[Fuc(a1-6)]GlcNAc
# In short: as §1
# [26] = biological target: GlcNAc(b1-2)[GlcNAc(b1-6)]Man(a1-6)[GlcNAc(b1-4)][GlcNAc(b1-2)Man(a1-3)]Man(b1-4)GlcNAc(b1-4)GlcNAc
# In short: as §1
# GlcNAc(b1-3)Fuc = biological target: GlcNAc(b1-3)Fuc
# In short: as §1
# GlcNAc(b1-3)Gal = biological target: GlcNAc(b1-3)Gal
# In short: as §1
# [27] = biological target: GlcNAc(b1-3)Gal(b1-3)GalNAc
# In short: as §1
binder,measurement,setting,value
B1,glycan array binding signal (z-score),[1],-0.153
same,glycan array binding signal (z-score),GalNAc4S6S(b1-4)GlcNAc,-0.038
same,glycan array binding signal (z-score),GalNAc6S(b1-4)GlcNAc,-0.104
same,glycan array binding signal (z-score),Glc(a1-4)Glc,4.5
same,glycan array binding signal (z-score),[2],23.6
same,glycan array binding signal (z-score),Glc(a1-6)Glc(a1-6)Glc,-0.136
same,glycan array binding signal (z-score),[3],0.003
same,glycan array binding signal (z-score),Glc(b1-4)Glc,-0.094
same,glycan array binding signal (z-score),Glc(b1-6)Glc,-0.037
same,glycan array binding signal (z-score),GlcA(b1-3)Gal,-0.069
same,glycan array binding signal (z-score),GlcA(b1-3)GlcNAc,-0.033
same,glycan array binding signal (z-score),GlcA(b1-6)Gal,-0.08
same,glycan array binding signal (z-score),[4],-0.143
same,glycan array binding signal (z-score),[5],-0.093
same,glycan array binding signal (z-score),[6],-0.156
same,glycan array binding signal (z-score),[7],-0.12
same,glycan array binding signal (z-score),[8],-0.132
same,glycan array binding signal (z-score),[9],-0.211
same,glycan array binding signal (z-score),[10],-0.192
same,glycan array binding signal (z-score),[11],-0.11
same,glycan array binding signal (z-score),[12],-0.186
same,glycan array binding signal (z-score),[13],0.028
same,glycan array binding signal (z-score),[14],-0.133
same,glycan array binding signal (z-score),[15],-0.062
same,glycan array binding signal (z-score),[16],-0.134
same,glycan array binding signal (z-score),[17],-0.115
same,glycan array binding signal (z-score),[18],-0.056
same,glycan array binding signal (z-score),[19],-0.161
same,glycan array binding signal (z-score),[20],-0.116
same,glycan array binding signal (z-score),[21],-0.052
same,glycan array binding signal (z-score),[22],-0.128
same,glycan array binding signal (z-score),[23],-0.086
same,glycan array binding signal (z-score),[24],-0.091
same,glycan array binding signal (z-score),[25],-0.122
same,glycan array binding signal (z-score),[26],-0.145
same,glycan array binding signal (z-score),GlcNAc(b1-3)Fuc,-0.027
same,glycan array binding signal (z-score),GlcNAc(b1-3)Gal,-0.146
same,glycan array binding signal (z-score),[27],-0.061
